This sample is rich in variants without activity.

The values below come from the RNAGym collection of RNA variant scans (doi:10.1073/pnas.2313332121).

B1: TPR 5TU (parent)
chain: GGAUCUUCUCGAUCUAACAAAAAAGACAAAUCUGCCACAAAGCUUGAGAGCAUCUUCGGAUGCAGAGGCGGCAGCCUUCGGUGGCGCGAUAGCGCCAACGUUCUCAACUAUGACACGCAAAACGCGUGCUCCGUUGAAUGGAGUUUAUCAUG

The data set covers variants of B1. The data set is described as follows: polymerase ribozyme fitness, log enrichment relative to wild type (log ratio); higher = more active; in vitro selection for triplet polymerase activity. In outline: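 Mutant libraries for each subunit of a heterodimeric triplet polymerase ribozyme were made by PCR and then transcribed. Each library underwent one round of in vitro selection in triplicate: annealing with a biotinylated primer, the partner subunit and triplets, frozen incubation at −7 °C, gel excision of extended constructs, streptavidin-bead capture and RT-PCR. Input and output libraries were Illumina-sequenced, and only genotypes with ≥10 input reads and ≥1 read per output were kept. Fitness is the logarithm, base 2, of genotype enrichment over wild-type enrichment, computed from inverse-variance-weighted replicate averages.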
Take A41U C114A: the “polymerase ribozyme fitness (log ratio)” value is -4.16. Take A40U G65A G70C U102G A121G: the “polymerase ribozyme fitness (log ratio)” value is no more than -4.2. As for A41U G42A U44A U53C G62A G67A G86U C95U C116U A120G, the “polymerase ribozyme fitness (log ratio)” value was no more than -4.2.

Regarding A40U U61A G117U G126C G133A, the “polymerase ribozyme fitness (log ratio)” value is no more than -4.2. A41U G80U U101C: the “polymerase ribozyme fitness (log ratio)” value is -4.09. With A41C U101G, the “polymerase ribozyme fitness (log ratio)” value is -0.344. As for A41U G88U G126C, the “polymerase ribozyme fitness (log ratio)” value was no more than -4.2. With A41U A49U G62U U101G U102A C131U U151C, the “polymerase ribozyme fitness (log ratio)” value is no more than -4.2. For the variant A41C C72U A138G, the “polymerase ribozyme fitness (log ratio)” value was no more than -4.2. Under A41U C57A G62A G71A G84A G117A C132A G141A stands no more than -4.2.

Turning to A41C G143A, the “polymerase ribozyme fitness (log ratio)” value is -1.42.

Take A41C G143C: the “polymerase ribozyme fitness (log ratio)” value is -2.56. In the case of G42A A52G G59A A60U U144C, the “polymerase ribozyme fitness (log ratio)” value was no more than -4.2. With A41C C57U C85G G117A C149G the figure was no more than -4.2; with A41U A66C G67A C79G C96U A150U, no more than -4.2; with A41G U44G C79A A91C, no more than -4.2.

On to A41C U102A, for which the “polymerase ribozyme fitness (log ratio)” value was -1.07. A40U G86U G94A: the “polymerase ribozyme fitness (log ratio)” value was no more than -4.2. With A41C U55G G83C C85A C93U the figure was no more than -4.2; with A41U C54U C85U U90G A107U G133U U135G, no more than -4.2; with A41U G86U C125U U127G, -4.16. Under A41G A49C A89G C108U stands no more than -4.2; under A40U A60C G88C A121U G126U, no more than -4.2; under A41G U45A C76G C93G G140U, no more than -4.2. As for A41C G50U C95U A98G U101A C118A A142U, the “polymerase ribozyme fitness (log ratio)” value is no more than -4.2. A40G U45A C51U G65U G68U G83A A110C C114U: the “polymerase ribozyme fitness (log ratio)” value is no more than -4.2. A41C C87G C114U: the “polymerase ribozyme fitness (log ratio)” value was no more than -4.2. Under A41C A49U C57A G88U U101C G133A stands no more than -4.2. As to A40U C75G A91U, the “polymerase ribozyme fitness (log ratio)” value is no more than -4.2. Consider A41U C79U C96U C123A G152U, for which the “polymerase ribozyme fitness (log ratio)” value was no more than -4.2. Turning to A41G U139A G143C, the “polymerase ribozyme fitness (log ratio)” value is no more than -4.2.

On to A40U A60U, for which the “polymerase ribozyme fitness (log ratio)” value was -0.238.

For the variant A41C G46C U101A G117A U148A, the “polymerase ribozyme fitness (log ratio)” value is no more than -4.2. With A41U C54U U77A G94U the figure was no more than -4.2; with A40U U77C C85U C103A, no more than -4.2; with A40U C114U A121C, -2.44.

Turning to A41G G42C C85U C96G, the “polymerase ribozyme fitness (log ratio)” value was no more than -4.2. In the case of A41U G68C C76U A91C G140C, the “polymerase ribozyme fitness (log ratio)” value was no more than -4.2. Under A41U A73U C85U G117A G126C stands no more than -4.2; under A40G U45A G84A U102G, no more than -4.2; under A40G U53G C54U G74A G84A G92U A106U C114U G124A, no more than -4.2. For the variant A40G G65C A91U, the “polymerase ribozyme fitness (log ratio)” value is no more than -4.2. Turning to A40G U61A A138U, the “polymerase ribozyme fitness (log ratio)” value is no more than -4.2.

For the variant A41U C96G U104A C114U A121U G124C G133U, the “polymerase ribozyme fitness (log ratio)” value was no more than -4.2. Turning to A40G G59C C87U G133U G140C U151A, the “polymerase ribozyme fitness (log ratio)” value is no more than -4.2.

Turning to A40G G83U A113C G126U G143U, the “polymerase ribozyme fitness (log ratio)” value is no more than -4.2. With A41C C57G G83A C108A G133A, the “polymerase ribozyme fitness (log ratio)” value was no more than -4.2.

With A41C U144C A147U, the “polymerase ribozyme fitness (log ratio)” value was -0.619. With A41C G48C C75U the figure was no more than -4.2; with A41U C57U C85U, -1.12. With A41U C85G U90G G152A, the “polymerase ribozyme fitness (log ratio)” value is no more than -4.2. With G42A A47C C85G C96G C116A A147U the figure was no more than -4.2; with A41C G68U G84C, no more than -4.2. Under A41U G42U G70C C87A A91G C96G A98G A142C stands no more than -4.2; under A41U A52U G81U C87U C105G, no more than -4.2; under A40G G74A G86U C93A G100C A107G, no more than -4.2.

For the variant A41G C54G G86C A122G, the “polymerase ribozyme fitness (log ratio)” value was no more than -4.2. In the case of A41U C57G G126A U144A A147C, the “polymerase ribozyme fitness (log ratio)” value was no more than -4.2. Consider A40U A73G C99G C105G, for which the “polymerase ribozyme fitness (log ratio)” value is no more than -4.2.

Take A41C U56A G62U G84A G133U: the “polymerase ribozyme fitness (log ratio)” value is no more than -4.2. On to A41C A52C C63A A66C G83C A113U U145C, for which the “polymerase ribozyme fitness (log ratio)” value is no more than -4.2.

For the variant A40U U101G A113C, the “polymerase ribozyme fitness (log ratio)” value is no more than -4.2. With A40U G126U U148A the figure was no more than -4.2.

On to A41C U44A C96G, for which the “polymerase ribozyme fitness (log ratio)” value was no more than -4.2. Regarding A41C G84A, the “polymerase ribozyme fitness (log ratio)” value is -0.601. Consider A40G G80C U90G, for which the “polymerase ribozyme fitness (log ratio)” value is no more than -4.2.

For the variant A40U C76U, the “polymerase ribozyme fitness (log ratio)” value is -0.102. For the variant G42A A60G C93U A106G C116U, the “polymerase ribozyme fitness (log ratio)” value was no more than -4.2. For the variant A41C C54U G67U U139C, the “polymerase ribozyme fitness (log ratio)” value is no more than -4.2.

Take G42A A49G G86A G128A U134A G141C U145C: the “polymerase ribozyme fitness (log ratio)” value was no more than -4.2. Regarding A41U U44A G65C C85G G143U, the “polymerase ribozyme fitness (log ratio)” value is no more than -4.2. A40U G42C U56A C85A A107G U139A G140C A147G: the “polymerase ribozyme fitness (log ratio)” value is no more than -4.2. Take A41C A73U U102G G124A: the “polymerase ribozyme fitness (log ratio)” value is no more than -4.2. With A41U G88U C96U A107C A121U U139G the figure was no more than -4.2; with A41U C87A A89U, no more than -4.2; with A41G A60C G94C C116U G124A, no more than -4.2. In the case of A41C G48C C57G U101G, the “polymerase ribozyme fitness (log ratio)” value was no more than -4.2.

Take A40U G88U C103A: the “polymerase ribozyme fitness (log ratio)” value was no more than -4.2. With A40U A60U G67U G74A, the “polymerase ribozyme fitness (log ratio)” value is no more than -4.2. With A40G G94A A115U C131G G143U the figure was no more than -4.2; with A41G U56A C79U U82G C85U A122G C129A G136U, no more than -4.2. As to A41G G80A G81A G88A A98G, the “polymerase ribozyme fitness (log ratio)” value was no more than -4.2.

As to A41U G88A C95G A106C A120G, the “polymerase ribozyme fitness (log ratio)” value was no more than -4.2.
